Consider 172 sequences from article PMC10668032.

This is one part of the list. At the low end of the ranking the order means little.

The target of this experiment is SIX1 homeodomain (reference allele) (UniProt Q15475). The experiment can be described thus: universal protein binding microarray. The following applies: Universal all-10-mer PBM (8x60K, AMADID 030236), 300 nM GST-tagged protein, Alexa Fluor 488 anti-GST; buffer, salt, pH and temperature not stated; high values mean tight binding; most listed sequences are background and not binding sites; double strand, one strand shown.
As for TACTGTAA, the binding signal stood at 0.121 E-score.

As for TCTACCAA, the binding signal was -0.0219 E-score.

Consider CGTTACCA, for which the binding signal stood at 0.132 E-score.

Turning to GTCAGGCA, the binding signal is -0.159 E-score.

Turning to CTCAATGA, the binding signal is -0.0264 E-score.

Regarding AGGCGTAA, the binding signal was -0.149 E-score.

As to GTAGACTA, the binding signal is -0.0676 E-score.

In the case of CCCAAACA, the binding signal was determined as 0.0132 E-score.

Take CAAATAAA: the binding signal is -0.155 E-score.

With CTGTCGCA, the binding signal was -0.158 E-score.

GTTTCTCA: the binding signal is -0.184 E-score.

As to ATCCTCCA, the binding signal turned out to be 0.297 E-score.

For the sequence AGCATCCT, the binding signal was -0.0896 E-score.

For the sequence CGGCGGAC, the binding signal came out at 0.0235 E-score.

Regarding CGTCCACG, the binding signal was -0.106 E-score.

For GATCGGCA, the binding signal was found to be 0.211 E-score.

For GAACGAAC, the binding signal is -0.0749 E-score.

ATAGTCCG: the binding signal is -0.0202 E-score.

Regarding AAGGACAG, the binding signal is -0.168 E-score.

Regarding AACAGACG, the binding signal was -0.124 E-score.

For ACATGCGA, the binding signal amounted to 0.102 E-score.

As to CTACTGAC, the binding signal was -0.0954 E-score.

As for AACCGACA, the binding signal came to 0.0815 E-score.

Consider ACCCCCAT, for which the binding signal came to 0.0992 E-score.

Turning to CAAGCAGG, the binding signal was -0.0694 E-score.

Regarding ACGATCTA, the binding signal worked out at 0.164 E-score.

In the case of AACGTCGA, the binding signal was -0.168 E-score.

Take CGAAGAAA: the binding signal is -0.199 E-score.

On to CATCGAAG, for which the binding signal amounted to 0.178 E-score.

On to ATAACTCG, for which the binding signal is -0.0821 E-score.

On to CAGTTTGC, for which the binding signal was -0.16 E-score.

For the sequence CAAGGCGG, the binding signal was -0.119 E-score.

In the case of CGGCCTGC, the binding signal was -0.16 E-score.

ATCAGCGG: the binding signal was 0.171 E-score.

AAAGGCCT: the binding signal was -0.37 E-score.

Consider CTAGTGGC, for which the binding signal is -0.185 E-score.

Take GACTGCGC: the binding signal is -0.078 E-score.

Regarding CATACGGA, the binding signal is 0.178 E-score.

Take CCATCGCC: the binding signal is 0.0549 E-score.

In the case of CACTTGAC, the binding signal is -0.0517 E-score.

As to GATCTAAC, the binding signal was 0.149 E-score.

AAAATTAG: the binding signal was -0.216 E-score.

Regarding CGGTGGAG, the binding signal is -0.0648 E-score.

Take GGGTCGTA: the binding signal came to 0.141 E-score.

Take CGCTTGAG: the binding signal was -0.169 E-score.

As to CTACCACA, the binding signal was -0.143 E-score.

Consider CGTTGGAA, for which the binding signal is -0.0203 E-score.

Turning to CAACTTCC, the binding signal is -0.155 E-score.

Take GCCTAAAA: the binding signal was -0.262 E-score.

As for ACCACTAC, the binding signal is -0.0964 E-score.

Turning to ATGTAAAG, the binding signal was -0.158 E-score.

For the sequence ACTGCCAC, the binding signal was -0.182 E-score.

AAATTGTA: the binding signal is -0.207 E-score.

Turning to GGCCGGTA, the binding signal worked out at 0.0377 E-score.

As to CCCGCGAG, the binding signal was 0.206 E-score.

With AATATCCC, the binding signal stood at 0.378 E-score.

For the sequence ACATAAAT, the binding signal is -0.12 E-score.

Turning to ACCTGCCG, the binding signal was -0.101 E-score.

For the sequence CATAGACG, the binding signal was -0.0184 E-score.

As to CAGTCCAC, the binding signal is -0.228 E-score.

GGTTATCA: the binding signal worked out at 0.21 E-score.

Consider AACATCTC, for which the binding signal was 0.0198 E-score.

On to ATGTGATA, for which the binding signal stood at 0.392 E-score.

For the sequence AAAAGATG, the binding signal was -0.201 E-score.

In the case of AACTTTGC, the binding signal was -0.267 E-score.

In the case of AGTGTGTG, the binding signal worked out at 0.123 E-score.

As to ATTGTCAG, the binding signal is -0.0991 E-score.

For ACATTGTG, the binding signal is -0.121 E-score.

As for ACGTCCAC, the binding signal is -0.311 E-score.

Consider CGTGTACA, for which the binding signal is 0.114 E-score.

As for CCAGGGCG, the binding signal was -0.0407 E-score.

For GTCAAAAA, the binding signal is -0.085 E-score.

As for AGCCGGAC, the binding signal is 0.0596 E-score.

On to AATAGGGC, for which the binding signal is -0.0973 E-score.

In the case of CGACCCAA, the binding signal is -0.0483 E-score.

With CCATAATC, the binding signal turned out to be 0.119 E-score.

As to ACTCTGTG, the binding signal came to 0.0939 E-score.

Take AACTCCAC: the binding signal was -0.119 E-score.

Consider AGTGCTGC, for which the binding signal was -0.279 E-score.

For the sequence AGAGGTAG, the binding signal turned out to be 0.0353 E-score.

With AAGTCTTA, the binding signal was -0.127 E-score.

Turning to CACTGACC, the binding signal was -0.16 E-score.

Take AGCCTAAT: the binding signal was -0.122 E-score.

With CCTAGCTA, the binding signal stood at 0.15 E-score.

As to AACGATAC, the binding signal is 0.435 E-score.

ATACTTGG: the binding signal is 0.199 E-score.

With AACTGGAC, the binding signal was -0.146 E-score.

AACAACCC: the binding signal is -0.0853 E-score.

Consider CCGAGGAC, for which the binding signal amounted to 0.055 E-score.

As to GCTTCCCC, the binding signal was -0.048 E-score.

In the case of CTACCTAG, the binding signal amounted to 0.0181 E-score.

On to GACAATGA, for which the binding signal was -0.173 E-score.

Turning to ATCGAACA, the binding signal came out at 0.167 E-score.

With TATGATCA, the binding signal stood at 0.25 E-score.

GCACCAGA: the binding signal is -0.0402 E-score.

As to CCACCCGG, the binding signal turned out to be 0.0085 E-score.

For AATACGAT, the binding signal is 0.338 E-score.

In the case of CTCGACGC, the binding signal is -0.0621 E-score.

Regarding CGAGTGGA, the binding signal was found to be 0.135 E-score.

Regarding ACACCGCT, the binding signal amounted to 0.224 E-score.

In the case of TCCTCAAA, the binding signal was -0.178 E-score.

In the case of AGGTGACC, the binding signal is -0.0897 E-score.

In the case of ATCTTGAG, the binding signal amounted to 0.0468 E-score.

In the case of CTGTCTTA, the binding signal was -0.0279 E-score.

AAATGGGG: the binding signal is -0.166 E-score.

CAAGTAAG: the binding signal was -0.101 E-score.

In the case of GAGAGACC, the binding signal was -0.0608 E-score.

On to CCTAACGA, for which the binding signal was determined as 0.0278 E-score.

On to GTCCTCGA, for which the binding signal was -0.0465 E-score.

Turning to CTGTGATA, the binding signal came out at 0.39 E-score.

With CCTACAAG, the binding signal was -0.112 E-score.

Turning to AGACTAGA, the binding signal was -0.0667 E-score.

Consider ATCTTTAG, for which the binding signal was determined as 0.0382 E-score.

Consider AACTCCAT, for which the binding signal is -0.213 E-score.

As for GTCATGAA, the binding signal stood at 0.124 E-score.

For the sequence GGGCATAC, the binding signal was -0.0587 E-score.

As to CAGCTGCC, the binding signal was -0.12 E-score.

As for CTGGACTA, the binding signal was -0.181 E-score.

For the sequence CCTACCAC, the binding signal is -0.241 E-score.

For the sequence GACACCGA, the binding signal stood at 0.383 E-score.

As to AAAGTAAG, the binding signal is -0.254 E-score.

As for GAAGCCAA, the binding signal is -0.0849 E-score.

Take AGACGATC: the binding signal came to 0.285 E-score.

For CGGGTAAG, the binding signal is -0.0658 E-score.

On to GAAAGAGA, for which the binding signal was -0.027 E-score.

With CAGGAGAA, the binding signal came out at 0.0335 E-score.

Regarding ATAAATAG, the binding signal was found to be 0.0909 E-score.

Take GCGCCTAC: the binding signal is -0.194 E-score.

Take ATACAAAC: the binding signal was 0.156 E-score.

On to CAGCTCTC, for which the binding signal is -0.168 E-score.

As for TATGACAA, the binding signal was 0.0785 E-score.

As for TTGACAAA, the binding signal was -0.253 E-score.

As for ACCTGGAT, the binding signal turned out to be 0.206 E-score.

For the sequence AATAGCAG, the binding signal came out at 0.00467 E-score.

On to CAATGAGA, for which the binding signal came to 0.0863 E-score.

For the sequence ACTGAGGA, the binding signal is 0.0721 E-score.

As to ACTTGCTA, the binding signal was -0.0958 E-score.

As to GCAAGGAA, the binding signal was found to be 0.0556 E-score.

Turning to CCTGTCGA, the binding signal is -0.0707 E-score.

Take CCCCATCG: the binding signal worked out at 0.152 E-score.

With TAGCATCA, the binding signal turned out to be 0.0528 E-score.

For GGCTTACA, the binding signal was found to be 0.00881 E-score.

Take ACTCCAAC: the binding signal is -0.162 E-score.

In the case of AAAGTACT, the binding signal is -0.138 E-score.

As for ACTTGTCC, the binding signal was -0.115 E-score.

On to CGGCACAA, for which the binding signal is -0.0988 E-score.

As to GTTCTCTA, the binding signal came out at 0.0596 E-score.

As for ATCTGCTC, the binding signal came out at 0.142 E-score.

Regarding GCCGATCC, the binding signal came out at 0.352 E-score.

For the sequence TACAGGCA, the binding signal is -0.0517 E-score.

As to AACTTCAT, the binding signal was -0.158 E-score.

With ACATGAGT, the binding signal was -0.0923 E-score.

CTGTAATC: the binding signal was found to be 0.0894 E-score.

On to CACGTCCG, for which the binding signal was -0.24 E-score.

Consider CGACAGCC, for which the binding signal is -0.255 E-score.

As for GTCGTACA, the binding signal is -0.17 E-score.

Take CTTCCGAA: the binding signal was -0.052 E-score.

GTGGACCA: the binding signal was -0.154 E-score.

Regarding GGCATAGA, the binding signal is 0.0984 E-score.

For the sequence AGCTGGTC, the binding signal is -0.131 E-score.

On to ATCCTAGA, for which the binding signal was determined as 0.245 E-score.

As to AACAGGTG, the binding signal was determined as 0.0295 E-score.

As for CGAAGACA, the binding signal was found to be 0.017 E-score.

As for ACCGCGGA, the binding signal stood at 0.232 E-score.

GACTTCTA: the binding signal was -0.297 E-score.

In the case of AGTTGCGA, the binding signal turned out to be 0.0524 E-score.

TCCGAACA: the binding signal is -0.241 E-score.

As for ACTATCTG, the binding signal was determined as 0.178 E-score.

In the case of CCTTGGGC, the binding signal is -0.00364 E-score.

Regarding CATATGGA, the binding signal worked out at 0.0401 E-score.

Take ATGGGCTC: the binding signal was -0.041 E-score.

With TAACATGA, the binding signal came to 0.0049 E-score.
